Experimental data reported in US20220220204A1 (published 2022).
Where two headings read alike, the source gives them in different places.

Key:
Experiment in all cases: FACS binding
[1] = target: T1, LAG-3 expressed on CHO-K1 cells (UniProt P18627 23-525)
T1 chain: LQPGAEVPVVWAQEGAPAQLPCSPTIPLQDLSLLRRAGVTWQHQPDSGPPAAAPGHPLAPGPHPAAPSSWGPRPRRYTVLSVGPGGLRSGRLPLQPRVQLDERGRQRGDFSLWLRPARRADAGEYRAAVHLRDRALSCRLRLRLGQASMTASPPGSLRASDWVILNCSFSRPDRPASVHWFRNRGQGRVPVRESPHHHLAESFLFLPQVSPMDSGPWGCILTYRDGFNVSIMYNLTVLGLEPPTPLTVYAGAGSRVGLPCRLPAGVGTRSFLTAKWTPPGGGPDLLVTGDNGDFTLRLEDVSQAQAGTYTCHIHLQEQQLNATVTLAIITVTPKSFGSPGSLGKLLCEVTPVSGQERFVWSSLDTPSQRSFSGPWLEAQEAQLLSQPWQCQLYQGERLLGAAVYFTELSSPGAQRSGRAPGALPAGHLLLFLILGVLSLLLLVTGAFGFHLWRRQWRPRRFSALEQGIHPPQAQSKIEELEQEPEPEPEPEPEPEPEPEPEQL

[2] = target: T1, LAG-3 expressed on CHO-K1 cells
[3] = target: T2, PD-L1 expressed on CHO-K1 cells (UniProt Q9NZQ7)
[4] = target: T2, PD-L1 expressed on CHO-K1 cells; remark: listed apart in the source
T2 sequence (Q9NZQ7 19-290): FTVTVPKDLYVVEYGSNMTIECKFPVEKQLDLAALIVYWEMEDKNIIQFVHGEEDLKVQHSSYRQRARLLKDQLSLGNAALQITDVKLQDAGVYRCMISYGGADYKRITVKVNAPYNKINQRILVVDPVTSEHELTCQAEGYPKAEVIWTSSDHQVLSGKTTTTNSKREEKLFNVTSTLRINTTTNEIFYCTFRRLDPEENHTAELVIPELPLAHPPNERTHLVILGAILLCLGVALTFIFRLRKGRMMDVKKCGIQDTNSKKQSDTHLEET

B1: sLAG3-E-mPDL1LCv1-HCv1 (bispecific antibody)
light: EVQLVESGGGLVQPGGSLRLSCAASGYTVSSYCMGWFRQAPGKGREGVSAIDSDGSVSYADSVKGRFTISKDNSKNTLYLQMNSLRAEDTAVYFCAADLCWVDQDQGEYNTWGQGTLVTVSSEPKSSDKTHTSPPSPDIQMTQSPSSLSASVGDRVTITCRASQDVSTAVDWYQQKPGKAPKLLIYSASYRYTGVPDRFSGSGSGTDFTFTISSLQPEDIATYYCQQHYSIPFTFGQGTKLEIKRTVAAPSVFIFPPSDEQLKSGTASVVCLLNNFYPREAKVQWKVDNALQSGNSQESVTEQDSKDSTYSLSSTLTLSKADYEKHKVYACEVTHQGLSSPVTKSFNRGEC
heavy: EVQLVQSGAEVKKPGASVKVSCKASGYIFTGYGITWVRQAPGQGLEWMGEIFPRRVQTYYSEKFKGRVTMTTDTSTSTAYMELRSLRSDDTAVYYCARDYDPYFALDYWGQGTTVTVSSASTKGPSVFPLAPSSKSTSGGTAALGCLVKDYFPEPVTVSWNSGALTSGVHTFPAVLQSSGLYSLSSVVTVPSSSLGTQTYICNVNHKPSNTKVDKKV[letters of human IgG1 Fc with changes not shown]
**Q.** What does the source list for B1?
**A.** EC50 [1]: 239 pM; EC50 [2]: 119 pM; EC50 [3]: 535 pM; EC50 [4]: 697 pM

B2: sLAG3-G12-mPDL1HCv1 (bispecific antibody)
heavy: EVQLVESGGGLVQPGGSLRLSCAASGYTVSSYCMGWFRQAPGKGREGVSAIDSDGSVSYADSVKGRFTISKDNSKNTLYLQMNSLRAEDTAVYFCAADLCWVDQDQGEYNTWGQGTLVTVSSGGGGSGGGGSGSEVQLVQSGAEVKKPGASVKVSCKASGYIFTGYGITWVRQAPGQGLEWMGEIFPRRVQTYYSEKFKGRVTMTTDTSTSTAYMELRSLRSDDTAVYYCARDYDPYFALDYWGQGTTVTVSSASTKGPSVFPLAPSSKSTSGGTAALGCLVKDYFPEPVTVSWNSGALTSGVHTFPAVLQSSGLYSLSSVVTVPSSSLGTQTYICNVNHKPSNTKVDKKV[letters of human IgG1 Fc with changes not shown]
light: DIQMTQSPSSLSASVGDRVTITCRASQDVSTAVDWYQQKPGKAPKLLIYSASYRYTGVPDRFSGSGSGTDFTFTISSLQPEDIATYYCQQHYSIPFTFGQGTKLEIKRTVAAPSVFIFPPSDEQLKSGTASVVCLLNNFYPREAKVQWKVDNALQSGNSQESVTEQDSKDSTYSLSSTLTLSKADYEKHKVYACEVTHQGLSSPVTKSFNRGEC
**Q.** What does the source list for B2?
**A.** EC50 [1]: 353 pM; EC50 [3]: 440 pM

B3: mPDL1HCv1-G15-sLAG3 (bispecific antibody)
heavy: EVQLVQSGAEVKKPGASVKVSCKASGYIFTGYGITWVRQAPGQGLEWMGEIFPRRVQTYYSEKFKGRVTMTTDTSTSTAYMELRSLRSDDTAVYYCARDYDPYFALDYWGQGTTVTVSSASTKGPSVFPLAPSSKSTSGGTAALGCLVKDYFPEPVTVSWNSGALTSGVHTFPAVLQSSGLYSLSSVVTVPSSSLGTQTYICNVNHKPSNTKVDKKV[letters of human IgG1 Fc with changes not shown]GGGGSGGGGSGGGGSEVQLVESGGGLVQPGGSLRLSCAASGYTVSSYCMGWFRQAPGKGREGVSAIDSDGSVSYADSVKGRFTISKDNSKNTLYLQMNSLRAEDTAVYFCAADLCWVDQDQGEYNTWGQGTLVTVSS
light: DIQMTQSPSSLSASVGDRVTITCRASQDVSTAVDWYQQKPGKAPKLLIYSASYRYTGVPDRFSGSGSGTDFTFTISSLQPEDIATYYCQQHYSIPFTFGQGTKLEIKRTVAAPSVFIFPPSDEQLKSGTASVVCLLNNFYPREAKVQWKVDNALQSGNSQESVTEQDSKDSTYSLSSTLTLSKADYEKHKVYACEVTHQGLSSPVTKSFNRGEC
**Q.** How did the EC50 [1] turn out when B3 was run?
**A.** The EC50 was 382 pM.

**Q.** And the EC50 [3]?
**A.** Its EC50 is 187 pM.

B4: mPDL1LCv1-E-sLAG3-HCv1 (bispecific antibody)
light: DIQMTQSPSSLSASVGDRVTITCRASQDVSTAVDWYQQKPGKAPKLLIYSASYRYTGVPDRFSGSGSGTDFTFTISSLQPEDIATYYCQQHYSIPFTFGQGTKLEIKRTVAAPSVFIFPPSDEQLKSGTASVVCLLNNFYPREAKVQWKVDNALQSGNSQESVTEQDSKDSTYSLSSTLTLSKADYEKHKVYACEVTHQGLSSPVTKSFNRGECEPKSSDKTHTSPPSPEVQLVESGGGLVQPGGSLRLSCAASGYTVSSYCMGWFRQAPGKGREGVSAIDSDGSVSYADSVKGRFTISKDNSKNTLYLQMNSLRAEDTAVYFCAADLCWVDQDQGEYNTWGQGTLVTVSS
heavy: EVQLVQSGAEVKKPGASVKVSCKASGYIFTGYGITWVRQAPGQGLEWMGEIFPRRVQTYYSEKFKGRVTMTTDTSTSTAYMELRSLRSDDTAVYYCARDYDPYFALDYWGQGTTVTVSSASTKGPSVFPLAPSSKSTSGGTAALGCLVKDYFPEPVTVSWNSGALTSGVHTFPAVLQSSGLYSLSSVVTVPSSSLGTQTYICNVNHKPSNTKVDKKV[letters of human IgG1 Fc with changes not shown]
**Q.** How did the EC50 [1] turn out when B4 was run?
**A.** The EC50 was 561 pM.

**Q.** What about the EC50 [2] of the same binder?
**A.** The EC50 was 43.7 pM.

**Q.** And the EC50 [3]?
**A.** The EC50 was 239 pM.

**Q.** What about the EC50 [4] of the same binder?
**A.** Its EC50 is 114 pM.

B5: mPDL1LCv1-E4-sLAG3-HCv1 (bispecific antibody)
light: DIQMTQSPSSLSASVGDRVTITCRASQDVSTAVDWYQQKPGKAPKLLIYSASYRYTGVPDRFSGSGSGTDFTFTISSLQPEDIATYYCQQHYSIPFTFGQGTKLEIKRTVAAPSVFIFPPSDEQLKSGTASVVCLLNNFYPREAKVQWKVDNALQSGNSQESVTEQDSKDSTYSLSSTLTLSKADYEKHKVYACEVTHQGLSSPVTKSFNRGECESKYGPPSPPSPEVQLVESGGGLVQPGGSLRLSCAASGYTVSSYCMGWFRQAPGKGREGVSAIDSDGSVSYADSVKGRFTISKDNSKNTLYLQMNSLRAEDTAVYFCAADLCWVDQDQGEYNTWGQGTLVTVSS
heavy: EVQLVQSGAEVKKPGASVKVSCKASGYIFTGYGITWVRQAPGQGLEWMGEIFPRRVQTYYSEKFKGRVTMTTDTSTSTAYMELRSLRSDDTAVYYCARDYDPYFALDYWGQGTTVTVSSASTKGPSVFPLAPSSKSTSGGTAALGCLVKDYFPEPVTVSWNSGALTSGVHTFPAVLQSSGLYSLSSVVTVPSSSLGTQTYICNVNHKPSNTKVDKKV[letters of human IgG1 Fc with changes not shown]
**Q.** Which EC50 [1] does the source give for B5 here?
**A.** Its EC50 is 558 pM.

**Q.** What about the EC50 [3] of the same binder?
**A.** Its EC50 is 224 pM.

B6: mPDL1HCv1-E4-sLAG3 (bispecific antibody)
heavy: EVQLVQSGAEVKKPGASVKVSCKASGYIFTGYGITWVRQAPGQGLEWMGEIFPRRVQTYYSEKFKGRVTMTTDTSTSTAYMELRSLRSDDTAVYYCARDYDPYFALDYWGQGTTVTVSSASTKGPSVFPLAPSSKSTSGGTAALGCLVKDYFPEPVTVSWNSGALTSGVHTFPAVLQSSGLYSLSSVVTVPSSSLGTQTYICNVNHKPSNTKVDKKV[letters of human IgG1 Fc with changes not shown]ESKYGPPSPPSPEVQLVESGGGLVQPGGSLRLSCAASGYTVSSYCMGWFRQAPGKGREGVSAIDSDGSVSYADSVKGRFTISKDNSKNTLYLQMNSLRAEDTAVYFCAADLCWVDQDQGEYNTWGQGTLVTVSS
light: DIQMTQSPSSLSASVGDRVTITCRASQDVSTAVDWYQQKPGKAPKLLIYSASYRYTGVPDRFSGSGSGTDFTFTISSLQPEDIATYYCQQHYSIPFTFGQGTKLEIKRTVAAPSVFIFPPSDEQLKSGTASVVCLLNNFYPREAKVQWKVDNALQSGNSQESVTEQDSKDSTYSLSSTLTLSKADYEKHKVYACEVTHQGLSSPVTKSFNRGEC
**Q.** With B6 as the binder, how does the EC50 [1] read?
**A.** Its EC50 is 399 pM.

**Q.** And the EC50 [3]?
**A.** Its EC50 is 189 pM.
